Common to all, as to assay: glycan array binding signal (z-score within array); higher = stronger binding
Holding throughout (conditions): glycan notation: IUPAC condensed, linker removed; mutation: E41G

For test [1], the target named is Neu5Ac(a2-3)Gal(b1-3)GlcNAc(b1-6)GalNAc. The essentials: (§1)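 The binding signal is a Z-score computed within each array and averaged over linkers. Arrays of the same protein sequence at different concentrations or buffers were also averaged together. Data originate from 3228 arrays in the Consortium for Functional Glycomics database, kept only where the protein sequence was available.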

Test [2] has as its target Neu5Ac(a2-3)Gal(b1-3)GlcNAc6S. The essentials: as §1
Test [3] deals with Neu5Ac(a2-3)Gal(b1-3)[Fuc(a1-4)]GlcNAc. The method in brief: as §1
The target in test [4] is Neu5Ac(a2-3)Gal(b1-3)[Fuc(a1-4)]GlcNAc(b1-3)Gal(b1-3)[Fuc(a1-4)]GlcNAc. The method in brief: as §1
Test [5] addresses Neu5Ac(a2-3)Gal(b1-3)[Fuc(a1-4)]GlcNAc(b1-3)Gal(b1-4)[Fuc(a1-3)]GlcNAc. The essentials: as §1
The target in test [6] is Neu5Ac(a2-3)Gal(b1-3)[GlcNAc(b1-6)]GalNAc. The method in brief: as §1
Test [7] has as its target Neu5Ac(a2-3)Gal(b1-3)[Neu5Ac(a2-6)]GalNAc. The essentials:
as §1

Test [8] deals with Neu5Ac(a2-3)Gal(b1-3)[Neu5Ac(a2-6)]GlcNAc(b1-3)[Fuc(a1-3)[Gal(b1-4)]GlcNAc(b1-6)]Gal(b1-4)Glc. The method in brief:
as §1

Test [9] concerns the target Neu5Ac(a2-3)Gal(b1-3)]Neu5Ac(a2-3)Gal(b1-4)]GlcNAc. The essentials: as §1
The target in the next test is Neu5Ac(a2-3)Gal(b1-4)Glc. The method in brief: as §1
The target of test [10] is Neu5Ac(a2-3)Gal(b1-4)GlcNAc. The method in brief:
as §1

The target of test [11] is Neu5Ac(a2-3)Gal(b1-4)GlcNAc(b1-2)Man. The essentials: as §1
Test [12] deals with Neu5Ac(a2-3)Gal(b1-4)GlcNAc(b1-2)Man(a1-3)[GlcNAc(b1-4)][Neu5Ac(a2-3)Gal(b1-4)GlcNAc(b1-2)Man(a1-6)]Man(b1-4)GlcNAc(b1-4)GlcNAc. The essentials:
as §1

The target in test [13] is Neu5Ac(a2-3)Gal(b1-4)GlcNAc(b1-2)Man(a1-3)[Neu5Ac(a2-3)Gal(b1-4)GlcNAc(b1-2)Man(a1-6)]Man(b1-4)GlcNAc(b1-4)GlcNAc. The method in brief: as §1
Test [14] deals with Neu5Ac(a2-3)Gal(b1-4)GlcNAc(b1-2)Man(a1-3)[Neu5Ac(a2-3)Gal(b1-4)GlcNAc(b1-2)Man(a1-6)]Man(b1-4)GlcNAc(b1-4)[Fuc(a1-6)]GlcNAc. The method in brief:
as §1

In test [15] the target is Neu5Ac(a2-3)Gal(b1-4)GlcNAc(b1-2)Man(a1-3)[Neu5Ac(a2-6)Gal(b1-4)GlcNAc(b1-2)Man(a1-6)]Man(b1-4)GlcNAc(b1-4)GlcNAc. The essentials: as §1
The target in test [16] is Neu5Ac(a2-3)Gal(b1-4)GlcNAc(b1-2)[Neu5Ac(a2-3)Gal(b1-4)GlcNAc(b1-4)]Man(a1-3)[GlcNAc(b1-4)][Neu5Ac(a2-3)Gal(b1-4)GlcNAc(b1-2)[Neu5Ac(a2-3)Gal(b1-4)GlcNAc(b1-6)]Man(a1-6)]Man(b1-4)GlcNAc(b1-4)GlcNAc. The method in brief: as §1
Test [17] deals with Neu5Ac(a2-3)Gal(b1-4)GlcNAc(b1-2)[Neu5Ac(a2-3)Gal(b1-4)GlcNAc(b1-4)]Man(a1-3)[GlcNAc(b1-4)][Neu5Ac(a2-3)Gal(b1-4)GlcNAc(b1-4)Man(a1-6)]Man(b1-4)GlcNAc(b1-4)GlcNAc. The essentials:
as §1

Test [18] deals with Neu5Ac(a2-3)Gal(b1-4)GlcNAc(b1-2)[Neu5Ac(a2-3)Gal(b1-4)GlcNAc(b1-6)]Man(a1-6)[Neu5Ac(a2-3)Gal(b1-4)GlcNAc(b1-2)Man(a1-3)][GlcNAc(b1-4)]Man(b1-4)GlcNAc(b1-4)GlcNAc. The method in brief:
as §1

Test [19] deals with Neu5Ac(a2-3)Gal(b1-4)GlcNAc(b1-3)Gal. The method in brief: as §1
Test [20] has as its target Neu5Ac(a2-3)Gal(b1-4)GlcNAc(b1-3)Gal(b1-3)GlcNAc. The essentials: as §1
Test [21] deals with Neu5Ac(a2-3)Gal(b1-4)GlcNAc(b1-3)Gal(b1-4)GlcNAc. The essentials: as §1

The other results are listed elsewhere or left out.

B1: CVN-E41G (protein)
chain: MHHHHHHENLYFQSGNFSQACYNSAIQGSVLTSTCIRTNGGYNTSSIDLNSVIGNVDGSLKWQGSNFIETCRNTQLAGSSELAAECKTRAQQFVSTKINLDDHIAAIDGTLKYE
B1: the “glycan array binding signal (z-score)” value was -0.146 in test [1]; -0.165 in [2]; -0.158 in [3]; -0.048 in test [4]; 0.001 in [5]; -0.159 in test [6]. Further, the “glycan array binding signal (z-score)” value in test [7] is -0.142; in [8], -0.162; in [9], -0.135; with Neu5Ac(a2-3)Gal(b1-4)Glc it was -0.122; in test [10], -0.167; in [11], 0.006. Moreover, the “glycan array binding signal (z-score)” value in test [12] was -0.172; in test [13], -0.16; in test [14] it was -0.172; in test [15], -0.142; in test [16] it was -0.18; in test [17] it was -0.174. Besides, the “glycan array binding signal (z-score)” value in test [18] is -0.068; in test [19], -0.175; in test [20] it was -0.178; in test [21], -0.168.

Source of the values: the supplement of paper PMC8728848.
